Assay results from EPA's CvTdb concentration-time database.
Further values from the same series stand in other lists.

Legend:
[1] = tested on: Rat; test: concentration in liver after dosing; settings: 8760 h; dosed: 3,3',4,4',5-pentachlorobiphenyl; 1000 mg/kg; oral; Male; Harlan Sprague Dawley
[2] = tested on: Rat; test: concentration in liver after dosing; settings: 2 h; dosed: 3,3',4,4',5-pentachlorobiphenyl; 1000 mg/kg; oral; Female; F344
[3] = tested on: Rat; test: concentration in liver after dosing; settings: 24 h; dosed: 3,3',4,4',5-pentachlorobiphenyl; 1000 mg/kg; oral; Female; F344
[4] = tested on: Rat; test: concentration in liver after dosing; settings: 768 h; dosed: 3,3',4,4',5-pentachlorobiphenyl; 1000 mg/kg; oral; Female; Harlan Sprague Dawley
[5] = tested on: Rat; test: concentration in liver after dosing; settings: 6000 h; dosed: 3,3',4,4',5-pentachlorobiphenyl; 1000 mg/kg; oral; Female; F344
[6] = tested on: Rat; test: concentration in liver after dosing; settings: 5088 h; dosed: 3,3',4,4',5-pentachlorobiphenyl; 1000 mg/kg; oral; Female; F344
[7] = tested on: Rat; test: concentration in liver after dosing; settings: 3 h; dosed: 3,3',4,4',5-pentachlorobiphenyl; 1000 mg/kg; oral; Female; F344
[8] = tested on: Rat; test: concentration in liver after dosing; settings: 768 h; dosed: 3,3',4,4',5-pentachlorobiphenyl; 1000 mg/kg; oral; Female; Harlan Sprague Dawley; remark: listed apart in the source
[9] = tested on: Rat; test: concentration in liver after dosing; settings: 2880 h; dosed: 3,3',4,4',5-pentachlorobiphenyl; 1000 mg/kg; oral; Female; Harlan Sprague Dawley
[10] = tested on: Rat; test: concentration in liver after dosing; settings: 5088 h; dosed: 3,3',4,4',5-pentachlorobiphenyl; 1000 mg/kg; oral; Female; F344; remark: listed apart in the source
[11] = tested on: Rat; test: concentration in liver after dosing; settings: 8 h; dosed: 3,3',4,4',5-pentachlorobiphenyl; 1000 mg/kg; oral; Female; F344
[12] = tested on: Rat; test: concentration in liver after dosing; settings: 120 h; dosed: 3,3',4,4',5-pentachlorobiphenyl; 1000 mg/kg; oral; Female; Harlan Sprague Dawley
[13] = tested on: Rat; test: concentration in plasma after dosing; settings: 8184 h; dosed: 3,3',4,4',5-pentachlorobiphenyl; 1000 mg/kg; oral; Male; Harlan Sprague Dawley
[14] = tested on: Rat; test: concentration in liver after dosing; settings: 1.5 h; dosed: 3,3',4,4',5-pentachlorobiphenyl; 1000 mg/kg; oral; Female; F344
[15] = tested on: Rat; test: concentration in plasma after dosing
[16] = tested on: Rat; test: concentration in brain after dosing; settings: 0.25 h; dosed: 76231-76-0; 3.0 mg/kg; iv; Female; F344
[17] = tested on: Rat; test: concentration in brain after dosing; settings: 6 h; dosed: alpha/beta-Thujone mixture; 50 mg/kg; oral; Male; F344
[18] = tested on: Rat; test: concentration in plasma after dosing; settings: 3 h; dosed: alpha/beta-Thujone mixture; 50 mg/kg; oral; Male; F344
[19] = tested on: Rat; test: concentration in plasma after dosing; settings: 6 h; dosed: alpha/beta-Thujone mixture; 25 mg/kg; oral; Female; F344
[20] = tested on: Rat; test: concentration in plasma after dosing; settings: 0.75 h; dosed: 76231-76-0; 3.0 mg/kg; iv; Female; F344
[21] = tested on: Rat; test: concentration in plasma after dosing; settings: 2 min; dosed: alpha/beta-Thujone mixture; 50 mg/kg; oral; Male; F344
[22] = tested on: Rat; test: concentration in plasma after dosing; settings: 3 h; dosed: 76231-76-0; 3.0 mg/kg; iv; Female; F344
[23] = tested on: Rat; test: concentration in plasma after dosing; settings: 1.5 h; dosed: alpha/beta-Thujone mixture; 25 mg/kg; oral; Female; F344
[24] = tested on: Rat; test: concentration in plasma after dosing; settings: 0.5 h; dosed: 76231-76-0; 3.0 mg/kg; iv; Female; F344
[25] = tested on: Rat; test: concentration in brain after dosing; settings: 0.25 h; dosed: 76231-76-0; 3.0 mg/kg; iv; Female; F344; remark: listed apart in the source
[26] = tested on: Rat; test: concentration in plasma after dosing; settings: 10 min; dosed: alpha/beta-Thujone mixture; 25 mg/kg; oral; Male; F344
[27] = tested on: Rat; test: concentration in plasma after dosing; settings: 10 min; dosed: alpha/beta-Thujone mixture; 50 mg/kg; oral; Male; F344
[28] = tested on: Rat; test: concentration in plasma after dosing; settings: 3 h; dosed: alpha/beta-Thujone mixture; 50 mg/kg; oral; Female; F344
[29] = tested on: Rat; test: concentration in plasma after dosing; settings: 10 min; dosed: alpha/beta-Thujone mixture; 25 mg/kg; oral; Female; F344
[30] = tested on: Rat; test: concentration in plasma after dosing; settings: 2 h; dosed: 76231-76-0; 3.0 mg/kg; iv; Female; F344
[31] = tested on: Rat; test: concentration in brain after dosing; settings: 0.5 h; dosed: alpha/beta-Thujone mixture; 50 mg/kg; oral; Male; F344
[32] = tested on: Rat; test: concentration in brain after dosing; settings: 1 h; dosed: 76231-76-0; 3.0 mg/kg; iv; Female; F344
[33] = tested on: Rat; test: concentration in plasma after dosing; settings: 1 h; dosed: 76231-76-0; 3.0 mg/kg; iv; Female; F344
[34] = tested on: Rat; test: concentration in plasma after dosing; settings: 0.5 h; dosed: alpha/beta-Thujone mixture; 50 mg/kg; oral; Male; F344

Clc1ccc(-c2cc(Cl)c(Cl)c(Cl)c2)cc1Cl [3,3',4,4',5-pentachlorobiphenyl]
Settings	concentration in liver [pg/g]	concentration in plasma [ng/mL]
[1]	467	–
[2]	3590	–
[3]	15300	–
[4]	2600	–
[5]	1220	–
[6]	998	–
[7]	6440	–
[8]	3660	–
[9]	2630	–
[10]	1880	–
[11]	18400	–
[12]	8550	–
[13]	–	0.111
[14]	2110	–

concentration in plasma [ng/mL], [15], dosed: 3,3',4,4',5-pentachlorobiphenyl, 1000 mg/kg, oral
Settings	7416 h	8184 h	8760 h
Female, F344	0.0635	0.0301	–
Male, Harlan Sprague Dawley	0.0339	0.0185	0.0175

CC(C)[C@]12CC(=O)[C@H](C)[C@H]1C2 [alpha-Thujone]
Settings	concentration in brain [ng/g]	concentration in plasma [ng/mL]
[16]	852	–
[17]	234	–
[18]	–	242
[19]	–	21.6
[20]	–	34.1
[21]	–	28.5
[22]	–	10.1
[23]	–	136
[24]	–	99.8
[25]	1360	–
[26]	–	280
[27]	–	550
[28]	–	138
[29]	–	843
[30]	–	12.6
[31]	830	–
[32]	123	–
[33]	–	23
[34]	–	299

concentration in plasma [ng/mL], [15], dosed: alpha/beta-Thujone mixture, oral, F344
Settings	0.5 h	1.5 h	2 min	3 h	5 min	6 h	10 min	12 h
25 mg/kg, Female	215	118	14.1	86.5	110	26.1	594	–
25 mg/kg, Male	301	174	102	151	233	55.3	321	15.8
50 mg/kg, Female	220	304	81.3	145	343	97.2	645	7.09
50 mg/kg, Male	312	178	84.2	281	160	121	722	21.7

concentration in plasma [ng/mL], [15], dosed: 76231-76-0, 3.0 mg/kg, iv, F344
Settings	Female	Male
0.25 h	162	–
0.5 h	53.6	–
0.75 h	29.2	89.9
1 h	18.2	76
1.5 h	6.48	–
2 h	9.36	18.6
2.5 h	5.48	–
3 h	7.31	–
4 h	–	11.3
5 min	585	579
6 h	–	18.6
8 h	–	9.26
10 min	253	249
12 h	–	5.08
20 min	–	167
